Measured values from the supplement of paper PMC11417369.
This is one part of the list.

Tested on: PfAP2-HC AP2 domain (GST-tagged)
Assay: gcPBM binding intensity (ln(normalized median fluorescence intensity)); higher = stronger DNA binding
Method in brief: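 An Agilent 4 × 180k array of primer-extended double-stranded 36-bp intergenic genomic probes, with negative controls, was incubated for 1 h with GST-tagged P. falciparum DNA-binding domains expressed in E. coli. Alexa488 anti-GST antibody detected bound protein, scanned at 488 nm. Binding intensity is the highest Masliner-normalised natural-log median intensity across replicate spots of either probe orientation.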

Sequence | gcPBM binding intensity (ln)
AAAAATAAAAAAAGCACACACATATATATATATATA [CACACA_site1885] | 10.5
GTGTGAAACATAAACACACACAAAAAGAAAAAATAG [CACACA_site1227] | 10.1
TGATATTTACAAATATTAAGATCTTATATTTTTTTT [CACACA_negctrl_site617] | 9.53
AATATAAATATTAAAACACACATAAAAAGATTATTA [CACACA_site1764] | 9.76
TATATATATATATTACGTACATAGAACTTTATAAAA [XGTACX_site4485] | 9.58
AATATTTTATTTTGGGTGCAAAAGAATATTATTTCA | 9.42
AGCACATATATATTATGTACATATAACTTCCCAGTG [XGTACX_site7095] | 9.66
GTATATATATATATATGTACTAATTAGTAGTTTACG [XGTACX_site6274] | 9.69
TATTACATAATACAAAGTACATATATTTTTTTATTT [XGTACX_site7061] | 9.62
ATATTTATACATAAATGTACTTTTATATATTTAATA [XGTACX_site3020] | 9.65
AATATTATAAATGATACACACTTAAAATACACGCAC [CACACA_site7305] | 9.98
TTGTGTAAAGGTATTATTGTATTATTCAAAATAAAA [XGTACX_negctrl_site167] | 9.47
AATATATAATATATATGTACTTATATATAAAAGATA [XGTACX_site7635] | 9.71
ATTTATTAATATCCCAGTACTCATGGGGAATAATGA [XGTACX_site4014] | 9.4
TGATAAATTAAAAATTGTACTATTATAATAATATAT [XGTACX_site6615] | 9.47
TTTATATAAATTTATTCACACAACTAATTTTTTAAA [CACACA_site4848] | 9.23
ACAATAAACATATATACACACACAAAAAAAAAAACA [CACACA_site8033] | 10.7
ATCAAATAGAGACACACACACCTAAACATAAAAGAA [CACACA_site7321] | 10.6
TGGAGGAACCTCATATGTACGTATAAATATATATTT [XGTACX_site5603] | 9.64
CATATATATTTGTTCACACACACACTAATAAAAAAA [CACACA_site8787] | 10.2
TTAAAGCACCCATGCACACACACAAAGGAAAAGAAA [CACACA_site233] | 10.2
TTATATGTATGGAGGTTTTTGTATATAGATATATAG [CACACA_negctrl_site177] | 9.68

Sequence | gcPBM binding intensity (ln)
CATCTTATATAATCATGTACATATAGAGACTTCTTT [XGTACX_site7685] | 9.62
TTTTTCTTACATGAGTGTACACACTTTTTTTCAGAA [XGTACX_site138] | 9.51
GGGGGAATTTACATGGGTACACATGTATTAAAAAAT [XGTACX_site4130] | 9.66
ACTATTAAAATGAATACACACAAATATAAAAATATA [CACACA_site4145] | 9.91
GGTAGGGATTATACCACACACACATACACATAAATA [CACACA_site3179] | 10.2
ACGCTACATAAATACGTGCACATCTTTTTGTGTATA [GTGCAC_site9675] | 9.72
AATATAAACAAACACACACACATATATATATATATT [CACACA_site5592] | 10.3
ATGTCATATAATAGTACACACATGAAAATATAAATA [CACACA_site3215] | 10.1
AAAAAAAAAAAAAATAGTACAATACCCAAATATAAC [XGTACX_site6684] | 9.82
ATAAAAAAAGGACACACACACATATATTTATTTATA [CACACA_site7438] | 10.5
ATTTTTCTTTTTAATACACACAAAAGTGATACAAAC [CACACA_site3923] | 9.73
TGTATTATATATACACAAATATTTATGTGTGTGTTT [XGTACX_negctrl_site475] | 10.1
TTTTTTTGTATTTGTTTATTTAATGATAAAATTAAA [CACACA_negctrl_site225] | 9.33
ATAGTCTTAATGACTACACACCTAACTATGCATGCA [CACACA_site5084] | 9.7
ATACAGTTGCATATGGTGCACGAATAATACACCTAT | 9.64
AAAAAAAAAAAAAAAACACACAAATCATAAATAAAT [CACACA_site478] | 9.85
TGGTAGTATATCATAGAAATCATTGTATAACAAATA [XGTACX_negctrl_site569] | 9.55
ACTAAACTAATATGTACACACATATAACATTAATTT [CACACA_site7128] | 9.88
TATATATATATATATAGTACATATTTATATATGAAA [XGTACX_site8488] | 9.64
GAATTAAAATAATACGTACACACATGTATAATACAT [CACACA_site1004] | 9.93
TTTCGTTCATAAAAAAGTACATATGAGCAAAAGGTA [XGTACX_site8936] | 9.57
CACAATACTTTCATCACACATATATATATATATATA [CACACA_site4677] | 9.7

Sequence | gcPBM binding intensity (ln)
TTGTTCTATTTAAGTAGTACATACACACACATATAC [XGTACX_site8484] | 10.3
ACATATATATATTCTACACACTTATAATATAATACA [CACACA_site2461] | 9.8
AGGTTTCATTTAGCATGTACATATTATAAAAATTGT [XGTACX_site8448] | 9.61
TCTGTTAATATTTATACACACATATATATATATATA [CACACA_site1139] | 9.88
AAGATTACTTATATATGTACACATAATACAAATGTC [XGTACX_site520] | 9.66
AAAAAATTATACCTTTGTACATAAATAAAATATTAT [XGTACX_site418] | 9.51
ACCCATTGCTCACGTGCACACATAGAAAAATAATTC [CACACA_site4389] | 9.87
ATAACATAAGGAAATACACACATATATAAGTATATA [CACACA_site778] | 10.2
TATGTATATATTTACGCATGCTACTCTATTTTGAGA [TGCATGCA_site990] | 9.91
ATAGTATCTGGTAGCTGTACGAGTCGTAGAGTGTAG [XGTACX_site2030] | 9.81
TGGGAAGGGTGGGAAACTTTATCAAAAACTTATTAC [GTGCAC_negctrl_site16] | 9.77
TATGTATTTTTTAAGTGTACCTATATATATATATAT [XGTACX_site7934] | 9.88
AGAAAGGTGGTATTAAAAGAATAACCTATGAATAAA [GTGCAC_negctrl_site325] | 9.4
TATAATAATAATTATTGTACGATTAGGTTAATTCAT [XGTACX_site1984] | 9.54
TTTTTCATAAAAAAATAAAAAAAATTAACATAGAAA [XGTACX_negctrl_site11] | 9.38
ATAATATATACTATATGTACATATCTTTTCCTCTTT [XGTACX_site5553] | 10.1
TTTTAGAGTGGTATATATTAATTTTTAATAAAAAAA [CACACA_negctrl_site1652] | 9.11
AATAAAAGAAGACAGAGTACACAGGTTGTATTTTCC [XGTACX_site7208] | 9.83
TGTGCATAAATTTATGCACACATAAAAAAAAAAAAA [CACACA_site8954] | 9.91
TTACACATATTTTTAATTATTCTGAATTCAAAAAAA [CACACA_negctrl_site1706] | 9.17
ATAATCATAAAATAAACACACATATATAAATATATT [CACACA_site276] | 9.78
GTAATATTAAAATATACACACATAGAATATATATAT [CACACA_site4391] | 9.87

Sequence | gcPBM binding intensity (ln)
TTTTTTATATTGTGATGTACAAATTTTAAAATGTAG [XGTACX_site1875] | 9.39
AAATTCGTTATAAAAACATGCAACGATCAACATTGT [TGCATGCA_site844] | 9.48
TTACTCTTTATATAATGTACATATATATATATATTA [XGTACX_site2624] | 9.82
GTGTGGAGTTACAAAGAGGAGAACCTCACAGTAATC [CACACA_negctrl_site527] | 9.78
TTATGTGATAAAAAAAAAATACAACAAAGTTAAATA [GTGCAC_negctrl_site36] | 9.58
ATATATATATATATAATACACACTTATGAAATGTCT [CACACA_site1827] | 9.82
TATAAAGGTTGGTACTGTACAATATAAGAAAAAAAA [XGTACX_site435] | 9.56
AAATAGTTCATAAAAAGTACAAAATTTTTATCCGTA [XGTACX_site2796] | 9.63
ATCATTCATTTAACAACACACAACATATTTATCATA [CACACA_site1041] | 9.83
TATATATTATATAAGAGTACATATAATTATAGTTTT [XGTACX_site5039] | 9.46
TGAAAAAAGAAAAATACACACATATAACATAATATA [CACACA_site7126] | 10.1
AATCTATATTAATACACACACACATATATTTATATA [CACACA_site7732] | 10.4
TTTATTTTGACAGATTGTACACTTTATACATGTTTT [XGTACX_site2356] | 9.85
GTATATATTTCCAGAAGTACTTATTTTTATGTATGT [XGTACX_site4079] | 9.71
TTATATTTATTGATATGTACATATTATAATTAATTA [XGTACX_site586] | 9.54
TGATTACATATGATGTGTACCTAATTTTGTTTACAC [XGTACX_site7032] | 10
AAAAATGCCAGAAAACGTACTCGGATTTTCTAATAT [XGTACX_site6552] | 9.49
AAAACACGCGGACACACACACACACCCACCCATATA [CACACA_site8688] | 11.6
TTTTAATATTTTGCCTGTACATAAAAGTGAGAAGAT [XGTACX_site2503] | 9.64
ACTATATATATAAGTGCATGTTCATTATACCTAAAG [TGCATGCA_site696] | 9.77
AAAAATTCATTTTTATGTACGTACAAATTCTTCGTT [XGTACX_site2471] | 9.57
TTTTAAAAAAATATAATACACACCAAAAATATGCAC [CACACA_site2131] | 9.78
